In all, about 110,000 compounds went through this assay and about 230 (0.21%) showed an effect of 50% or more. This is one part of the list.
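Note: 30 min substrate incubation versus DMSO and 10 µM JCP410 controls.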

The target in this assay is DPAP1 (Plasmodium falciparum, UniProt Q8IIJ9). The assay is described as follows: primary screen, percent inhibition; read by cleavage of a fluorogenic dipeptide substrate; higher = more effect of the substance. Details: species or system P. falciparum D10 trophozoite lysates; single well.
Sequence of DPAP1 (Q8IIJ9 whole entry, looked up): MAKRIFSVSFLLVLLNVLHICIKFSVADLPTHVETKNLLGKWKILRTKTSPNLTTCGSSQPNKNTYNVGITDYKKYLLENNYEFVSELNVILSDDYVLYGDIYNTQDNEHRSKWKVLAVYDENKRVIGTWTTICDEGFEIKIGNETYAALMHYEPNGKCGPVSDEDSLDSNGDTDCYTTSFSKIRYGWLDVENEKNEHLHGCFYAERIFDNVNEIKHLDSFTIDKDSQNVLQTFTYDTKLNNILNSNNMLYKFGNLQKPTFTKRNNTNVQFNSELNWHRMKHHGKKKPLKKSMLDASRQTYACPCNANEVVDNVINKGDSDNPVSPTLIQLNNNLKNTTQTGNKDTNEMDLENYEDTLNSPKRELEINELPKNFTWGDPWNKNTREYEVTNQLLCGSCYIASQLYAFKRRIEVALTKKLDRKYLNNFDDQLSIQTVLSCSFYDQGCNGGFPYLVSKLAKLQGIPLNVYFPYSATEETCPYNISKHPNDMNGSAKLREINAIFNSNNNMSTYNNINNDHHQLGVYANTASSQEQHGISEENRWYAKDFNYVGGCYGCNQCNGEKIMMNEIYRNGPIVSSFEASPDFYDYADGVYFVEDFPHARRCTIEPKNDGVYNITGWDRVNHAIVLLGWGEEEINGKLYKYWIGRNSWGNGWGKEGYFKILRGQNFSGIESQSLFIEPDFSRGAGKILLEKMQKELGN
As to `CN1CCN(c2ncnc3c2c(-c2ccccc2)cn3-c2ccc(Cl)cc2)CC1`, the “% Inhibition @ 10 uM” value stood at 6.14%.

Consider `CCOCCOC(=O)C1=C(C)NC(=O)CC1c1ccccc1OCC` (stereo not shown), for which the “% Inhibition @ 10 uM” value came out at 0.484%.

With `Cc1cc(C(F)(F)F)c(C#N)c(SCC(=O)Nc2nccs2)n1`, the “% Inhibition @ 10 uM” value is -2.77%.

For `CC(=O)c1cccc(NC(=O)c2ccc(N(C)S(=O)(=O)c3ccc(C)cc3)cc2)c1`, the “% Inhibition @ 10 uM” value came to 5.24%.

As for `N=C1/C(=C/c2ccc(SCc3ccco3)o2)C(=O)N=C2SC=C(c3ccc(F)cc3)N12`, the “% Inhibition @ 10 uM” value came to 28.7%.

Turning to `Cc1nc2ncnn2c(O)c1NC(=O)c1cccc(OCC(C)C)c1`, the “% Inhibition @ 10 uM” value was determined as 1.49%.

Take `O=C1CC(N2CCOCC2)C(=O)N1c1ccc(F)cc1` (stereo not shown): the “% Inhibition @ 10 uM” value is -1.44%.

With `COc1ccccc1/C=C/c1nc(-c2ccc(OCC(N)=O)cc2)no1`, the “% Inhibition @ 10 uM” value is -8.55%.

As for `Cc1ccc(CS(=O)Cc2ccc(C(=O)NC(C)c3ccccc3)o2)cc1` (stereo not shown), the “% Inhibition @ 10 uM” value is listed as -0.0309%.

For `O=C(CCc1ccccc1)N1CCN(c2ccc(F)cc2)CC1`, the “% Inhibition @ 10 uM” value amounted to 7.36%.

For the compound `O=C(CSCC(=O)N1c2ccccc2Sc2ccccc21)Nc1ccccc1`, the “% Inhibition @ 10 uM” value is -6.02%.

Regarding `COc1cccc(OC)c1C(=O)Nc1ccccc1C`, the “% Inhibition @ 10 uM” value was 4.03%.

As for `Cn1ncc(C(=O)N2CCN(C(=O)c3ccco3)CC2)c1C1CCN(C(=O)OC(C)(C)C)CC1`, the “% Inhibition @ 10 uM” value is 0.0065%.

With `CC1=C(C(=O)NCCCc2ccccc2)C2(CCCCC2)OC1=O`, the “% Inhibition @ 10 uM” value is -0.138%.

With `Cc1ccc(C(=O)C2=C(O)C(=O)N(c3ncccn3)C2c2ccc(Br)cc2)o1` (stereo not shown), the “% Inhibition @ 10 uM” value is recorded as -8.28%.

`CC(C)(C)NC(=O)/C=C/c1cccc([N+](=O)[O-])c1`: the “% Inhibition @ 10 uM” value was -5.84%.

For the compound `CCOc1ccccc1OCc1nn2c(Cn3cnc4ccccc43)nnc2s1`, the “% Inhibition @ 10 uM” value turned out to be 20.1%.

On to `FC(F)(F)c1cccc(CN2CCN(c3ncccn3)CC2)c1`, for which the “% Inhibition @ 10 uM” value was 0.708%.

`COc1cc(/C=C2\SC(=O)N(CC(=O)N3CCOCC3)C2=O)ccc1OCc1ccccc1C#N`: the “% Inhibition @ 10 uM” value was -0.312%.

For `COc1ccc(C(=O)N2c3c(C)cccc3C(Nc3ccccc3C)CC2C)cc1` (stereo not shown), the “% Inhibition @ 10 uM” value was -2.54%.

Regarding `N#CCNC(=O)C1CCCCN1c1ccc(Br)cc1` (stereo not shown), the “% Inhibition @ 10 uM” value is on record as -4.72%.

In the case of `CC(C)CC(C(=O)NCC#N)c1cccc(-c2cccc(S(=O)(=O)N3CCOCC3)c2)c1` (stereo not shown), the “% Inhibition @ 10 uM” value was -5.04%.

`CN(c1ccc(C(=O)Nc2ccc(S(=O)(=O)N3CCCCC3)cc2)cc1)S(C)(=O)=O`: the “% Inhibition @ 10 uM” value was -4.39%.

For the compound `CC(=O)c1ccc(C(=O)Nc2ccc(OCC(N)=O)cc2)cc1`, the “% Inhibition @ 10 uM” value is reported as -6.08%.

Consider `CCn1c2ccccc2c2cc(CN3CC4(C)CC3CC(C)(C)C4)ccc21` (stereo not shown), for which the “% Inhibition @ 10 uM” value turned out to be 1.08%.

As for `Cc1ccc(-c2noc(CCC(=O)NCC3CCN(Cc4cccc(C)c4)CC3)n2)cc1`, the “% Inhibition @ 10 uM” value was 1.3%.

For the compound `N#CCNC(=O)[C@H](CC1CCCCC1)NC(=O)c1sccc1Cl`, the “% Inhibition @ 10 uM” value was -5.21%.

Regarding `O=C(Cn1c(S(=O)(=O)Cc2ccccc2)nc2ccccc21)NC12CC3CC(CC(C3)C1)C2`, the “% Inhibition @ 10 uM” value is recorded as 1.72%.

Consider `Cc1oc2cc3oc(=O)c(CCC(=O)NCc4ccccc4)c(C)c3cc2c1C`, for which the “% Inhibition @ 10 uM” value is on record as 0.895%.

With `CCN(CC)S(=O)(=O)c1ccc(NC(=O)COc2ccccc2Cl)cc1`, the “% Inhibition @ 10 uM” value was -0.251%.

Consider `C=CCN1C(=O)S/C(=C/c2ccccc2Cl)C1=O`, for which the “% Inhibition @ 10 uM” value was -1.95%.

Turning to `O=C(CSc1ccccn1)Nc1c(C(=O)C2CC2)oc2ccccc12`, the “% Inhibition @ 10 uM” value amounted to 0.778%.

Turning to `CC(=O)Nc1ccc(Nc2nc(-c3c(C)nc4ncccn34)cs2)cc1`, the “% Inhibition @ 10 uM” value is listed as -4.32%.

On to `COc1ccc(OC)c(/C=C2/SC(Nc3ccc(C)cc3)=NC2=O)c1`, for which the “% Inhibition @ 10 uM” value was 6.51%.

As for `COc1cc(-n2nc(SC)c(C#N)c2N)nc(-c2ccccc2)n1`, the “% Inhibition @ 10 uM” value amounted to 1.82%.

Consider `CC(C)CCn1c(Br)nc2c1c(=O)n(CC(N)=O)c(=O)n2C`, for which the “% Inhibition @ 10 uM” value is -4.6%.

Take `COc1ccc2c(c1)nc(C)n2Cc1ccccc1`: the “% Inhibition @ 10 uM” value was -1.37%.

As to `COc1cccc(NC(=O)c2ccc(C)c(C)c2)c1`, the “% Inhibition @ 10 uM” value was 5.28%.

With `CCOC(=O)c1c(NC(=O)c2c(-c3ccccc3)noc2C)sc(C(=O)N(CC)CC)c1C`, the “% Inhibition @ 10 uM” value turned out to be 2.32%.

For the compound `Cc1ccc2nc3c(cc(C(=O)NCCc4ccccc4)c(=N)n3CCN3CCOCC3)c(=O)n2c1`, the “% Inhibition @ 10 uM” value was 5.17%.

With `C=CCn1c(=N)c(C(=O)NC2CCCCC2)cc2c(=O)n3cc(C)ccc3nc21`, the “% Inhibition @ 10 uM” value is listed as 1.76%.

Regarding `Cc1cccc(S(=O)(=O)N2CCSC2c2ccccc2)c1` (stereo not shown), the “% Inhibition @ 10 uM” value is -7.5%.

Consider `Cc1nc2c(-c3ccc(F)cc3)c(C)nn2c(C)c1CCC(=O)N1CCN(Cc2ccccc2)CC1`, for which the “% Inhibition @ 10 uM” value came to 2.93%.

`COc1ccccc1Cn1ccn(Cc2ccccc2F)c(=O)c1=O`: the “% Inhibition @ 10 uM” value came out at 1.23%.

In the case of `COc1cccc(N(CC(=O)N2CCN(c3cc(Cl)ccc3C)CC2)S(C)(=O)=O)c1`, the “% Inhibition @ 10 uM” value is given as -7.27%.

Regarding `O=C(CN1CCCCC1)Nc1c(C(=O)c2ccc(F)cc2)oc2ccccc12`, the “% Inhibition @ 10 uM” value was -3.9%.

On to `COc1ccc(CC(C(=O)O)C(C)C(=O)O)cc1` (stereo not shown), for which the “% Inhibition @ 10 uM” value was -6.06%.

For `O=C(c1cccnc1)N(Cc1ccccc1)Cc1ccccc1`, the “% Inhibition @ 10 uM” value came out at 3.09%.

As for `CCOC(=O)N1CCN(CCN2CCn3c2nc2ccccc23)CC1`, the “% Inhibition @ 10 uM” value is listed as -5.14%.
